Source: the supplement of paper PMC11417369
This is one part of the list.

test system: PfSIP2 AP2 domain 1 (GST-tagged); test: gcPBM binding intensity (ln(normalized median fluorescence intensity)); higher = stronger DNA binding
In short: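 DNA-binding domains from P. falciparum, fused to GST and produced in E. coli, were put on an Agilent 4 × 180k double-stranded probe array for 1 h in 1× PBS holding 1% milk, 0.2 mg/ml BSA, 0.5% salmon testes DNA and 0.03% Triton X-100. Probes were primer-extended, 36 bp long and drawn from intergenic genomic regions, with negative controls included. After Alexa488 anti-GST antibody detection and a 488 nm scan, binding intensity was set as the highest Masliner-normalised natural-log median intensity across replicate spots of either probe orientation.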

| Sequence | gcPBM binding intensity (ln) |
| --- | --- |
| TATATGAAGCTATAGACACACATATAAAAATATAAT [CACACA_site4850] | 6.83 |
| ATATAAAAAAAAGATGAAAAAAAAAATGAAAGAAAG [CACACA_negctrl_site1266] | 7 |
| ATATATATAATATGATGTACATATTTATTTATATAT [XGTACX_site7333] | 7.53 |
| AATGAAATAAAATAAAGTACATATATGTAAAAGTAG [XGTACX_site5650] | 7.6 |
| TTTTTTTTTTTTTACACACACAAAATATTATCTGTA [CACACA_site5378] | 7.01 |
| AATTGAAAAGAATGAAGTACACATTTGATGATACAT [XGTACX_site5182] | 6.87 |
| GAATGCCTTGAAAATAGTACAATTAAGAAAAAATAC [XGTACX_site8002] | 7.48 |
| TAAATAAATTTATACACACACACACCGATATATATA [CACACA_site4622] | 7.48 |
| AATAAAAGATCATTTATTCTTTTTTTTCTTTTTAAA [CACACA_negctrl_site1256] | 6.7 |
| AAAATACATAAACGTTCACACATTTAAGATAACGAG [CACACA_site5345] | 6.79 |
| TGAATAAATATATATACACACATATATGTATATATT [CACACA_site1642] | 6.72 |
| TATATATATAATATATGTACATATTAATTATGTATA [XGTACX_site5366] | 8.1 |
| GAGTTTACACTCCCTTGTACATATTCATTTTTATTC [XGTACX_site5208] | 7.13 |
| TTTTATTTTATAAAAATAAAAAAAAAATTATTACAA [TGCATGCA_negctrl_site508] | 6.68 |
| TGAAAATAGTTAATTTGTACACAAAAATTAAGAAAA [XGTACX_site5794] | 7.01 |
| AATTAAATAAATGTATGTACATAATAAATATGTATT [XGTACX_site4379] | 6.96 |
| TTTTCGATGTTGGTAGGATGTATGGTACACGTAGTA [TGCATGCA_negctrl_site61] | 7.15 |
| AAAGAAATATATACAAAAATATGAACAATTTATTAT [XGTACX_negctrl_site78] | 6.81 |
| TATGAAAATATATATTGTACAGAATCTATAAAAAAT [XGTACX_site8030] | 6.89 |
| GAAAATTTTTGGTGTACACAAAAAAATCCAAAAAAA [CACACA_site5042] | 7.58 |
| TATGATTGTTTACGTTGTACAGCTGAATTGTTCTTA [XGTACX_site8114] | 6.83 |
| GATAAAATGGATGGATGTACATTATTTCCATATAAT [XGTACX_site7781] | 6.95 |
| ATATTACTTCCTAAGTGTACAAGTAAGGAGAAAAAA [XGTACX_site3921] | 7.18 |
| AGATGTTTTTATATATGTACTTAAATACACAAATAT [XGTACX_site8250] | 7.35 |
